Experimental data from paper PMC8060278 (Nature Communications, 2021).

B1: A1-CAIM (recombinant VWF fragment […]) (domain or fragment)
chain: not shown
notes: also called AIM-less protein
B2: NAIM-A1 (VWF […]) (domain or fragment)
chain: not shown
notes: a BioSpy form also exists for the optical trap; also called AIM-less protein; source: baby hamster kidney cells as described (said of most recombinant VWF fragments), purified
B3: tAIM-A1 (VWF […]) (domain or fragment)
chain: not shown
notes: source: baby hamster kidney cells as described (said of most recombinant VWF fragments), purified
B4: AIM-A1 H1268D (domain or fragment)
chain: not shown
notes: Site-directed mutagenesis is described under the BioSpy constructs (BioTag N-terminal, 10His-SpyTag C-terminal, Expi293F-BirA); source: baby hamster kidney cells as described (said of type 2B mutants), purified
B5: AIM-A1 R1341Q (domain or fragment)
chain: not shown
notes: as for B4

molecular target: T1, recombinant ligand-binding domain (LBD) of GPIbα (residues His1-Arg290) (human, UniProt P07359 17-306, biotin on the BioTag (…)); experiment: BLI; biotinylated LBD loaded on streptavidin sensors (15 µg/mL); VWF fragments serially diluted from 1 μM to 15.6 nM; 23 °C, ForteBio kinetics buffer; heterogeneous-ligand global fit and steady-state hyperbola, apparent KD; settings: both partners purified
T1 construct: also called GPIbα-LBD; biotinylated LBD; not shown: BioTag, N-terminal, kept
T1 sequence (P07359 17-306): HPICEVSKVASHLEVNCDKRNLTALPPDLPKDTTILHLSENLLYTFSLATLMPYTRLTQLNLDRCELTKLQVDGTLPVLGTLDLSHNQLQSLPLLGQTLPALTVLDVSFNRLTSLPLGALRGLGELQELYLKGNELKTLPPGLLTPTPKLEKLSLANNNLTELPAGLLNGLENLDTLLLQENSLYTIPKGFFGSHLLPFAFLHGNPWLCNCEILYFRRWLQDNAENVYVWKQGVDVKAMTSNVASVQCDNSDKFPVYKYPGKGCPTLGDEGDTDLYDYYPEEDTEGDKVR

Question: Does B1 bind?
Answer: Result: binds

Question: Does B2 bind?
Answer: Result: binds

Question: Does B3 bind?
Answer: Result: binds

Question: Does B4 bind?
Answer: Result: binds

Question: Does B5 bind?
Answer: Result: binds
